The values that follow come from the supplement of paper PMC10369915.

Some of the results follow. No stated cut-off is given here; in the data, active = 3.2 or more and inactive = the rest. Only a few entries rise above the background.
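Further: displayed peptides selected on beads carrying the immobilized SH2 domain, with library peptides lacking any tyrosine serving as negative controls.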

The first assay deals with SHP2 C-SH2 domain E139D. As to the kind of experiment: enrichment score (SH2-bound / input frequency) (ratio); bacterial display of known human phosphotyrosine sites (pTyr-Var adds point mutants) read by sequencing; higher = stronger binding; tyrosines were phosphorylated by kinases first. As to conditions: peptide library: pTyr-Var.
Consider FLAVGYHKPYI [IDS_Y225_H229Y], for which the enrichment score is inactive: 1.48.

IKIMGYFIRTI [IDS_Y490_S491F]: the enrichment score is inactive: 1.87.

Take VVLGSYDRLRV [IFT172_Y260]: the enrichment score was inactive: 0.909.

As for IRTIDYRYTVC [IDS_Y497_W502C], the enrichment score was inactive: 0.933.

In the case of ISISPYPAILH [IFT80_Y588_T586S], the enrichment score was inactive: 0.629.

Take GKFFQYDTWNQ [IGF2_Y116_K120N]: the enrichment score was inactive: 1.26.

Take ISITPYPAILH [IFT80_Y588]: the enrichment score was inactive: 0.748.

With QTEGEYSSLEH [IDH3B_Y171], the enrichment score was inactive: 0.375.

On to IRTIDYRYTVS [IDS_Y497_W502S], for which the enrichment score is inactive: 0.98.

On to FLAVGYHQPHI [IDS_Y225_K227Q], for which the enrichment score was inactive: 1.65.

In the case of IKIMGYSIRTI [IDS_Y490], the enrichment score is inactive: 1.55.

With IRTIDYRYTVW [IDS_Y497], the enrichment score was inactive: 2.21.

For VVPGSYDRLRV [IFT172_Y260_L257P], the enrichment score was inactive: 0.75.

FLAVGYHKPHI [IDS_Y225]: the enrichment score is inactive: 2.69.

In the case of RIPFRYPKEFQ [IDS_Y234_H229R], the enrichment score is inactive: 0.442.

IRTIDYRFTVC [IDS_Y497_W502C_YF]: the enrichment score is inactive: 0.599.

Consider DGTVHYVDEKG [IFT140_Y216], for which the enrichment score was inactive: 0.675.

For the molecule FLAVGYHKPRI [IDS_Y225_H229R], the enrichment score was inactive: 2.55.

Regarding FLAVGYHKPFI [IDS_Y225_H229Y_YF], the enrichment score was inactive: 2.18.

A further assay deals with SHP2 C-SH2 domain wild-type. The description is as above. To be noted: peptide library: pTyr-Var.
As for FLAVGYHKPYI [IDS_Y225_H229Y], the enrichment score was inactive: 1.54.

Turning to IKIMGYFIRTI [IDS_Y490_S491F], the enrichment score is inactive: 1.91.

For VVLGSYDRLRV [IFT172_Y260], the enrichment score was inactive: 0.941.

Take IRTIDYRYTVC [IDS_Y497_W502C]: the enrichment score was inactive: 1.02.

With ISISPYPAILH [IFT80_Y588_T586S], the enrichment score is inactive: 0.625.

GKFFQYDTWNQ [IGF2_Y116_K120N]: the enrichment score was inactive: 1.17.

As for ISITPYPAILH [IFT80_Y588], the enrichment score is inactive: 0.737.

Consider QTEGEYSSLEH [IDH3B_Y171], for which the enrichment score is inactive: 0.517.

Consider IRTIDYRYTVS [IDS_Y497_W502S], for which the enrichment score is inactive: 0.813.

FLAVGYHQPHI [IDS_Y225_K227Q]: the enrichment score was inactive: 1.86.

For the molecule IKIMGYSIRTI [IDS_Y490], the enrichment score is inactive: 1.64.

Consider IRTIDYRYTVW [IDS_Y497], for which the enrichment score is inactive: 1.82.

On to VVPGSYDRLRV [IFT172_Y260_L257P], for which the enrichment score was inactive: 0.592.

For the molecule FLAVGYHKPHI [IDS_Y225], the enrichment score was inactive: 2.43.

Take RIPFRYPKEFQ [IDS_Y234_H229R]: the enrichment score is inactive: 0.322.

Take IRTIDYRFTVC [IDS_Y497_W502C_YF]: the enrichment score was inactive: 0.916.

On to DGTVHYVDEKG [IFT140_Y216], for which the enrichment score is inactive: 0.639.

On to FLAVGYHKPRI [IDS_Y225_H229R], for which the enrichment score was inactive: 2.23.

Regarding FLAVGYHKPFI [IDS_Y225_H229Y_YF], the enrichment score is inactive: 1.82.

A further assay has as its target SHP2 N-SH2 domain L43F. The assay is described as above. To be noted: peptide library: pTyr-Var.
For FLAVGYHKPYI [IDS_Y225_H229Y], the enrichment score was inactive: 1.86.

As to IKIMGYFIRTI [IDS_Y490_S491F], the enrichment score was inactive: 1.52.

In the case of VVLGSYDRLRV [IFT172_Y260], the enrichment score was inactive: 1.01.

Turning to IRTIDYRYTVC [IDS_Y497_W502C], the enrichment score was inactive: 0.826.

Regarding ISISPYPAILH [IFT80_Y588_T586S], the enrichment score is inactive: 0.63.

Turning to GKFFQYDTWNQ [IGF2_Y116_K120N], the enrichment score is inactive: 1.25.

For the molecule ISITPYPAILH [IFT80_Y588], the enrichment score was inactive: 0.681.

On to QTEGEYSSLEH [IDH3B_Y171], for which the enrichment score is inactive: 0.37.

With IRTIDYRYTVS [IDS_Y497_W502S], the enrichment score was inactive: 0.966.

Turning to FLAVGYHQPHI [IDS_Y225_K227Q], the enrichment score was inactive: 1.65.

As for IKIMGYSIRTI [IDS_Y490], the enrichment score is inactive: 1.53.

Regarding IRTIDYRYTVW [IDS_Y497], the enrichment score was inactive: 2.2.

For the molecule VVPGSYDRLRV [IFT172_Y260_L257P], the enrichment score was inactive: 0.759.

FLAVGYHKPHI [IDS_Y225]: the enrichment score was inactive: 2.81.

As to RIPFRYPKEFQ [IDS_Y234_H229R], the enrichment score is inactive: 0.427.

As to IRTIDYRFTVC [IDS_Y497_W502C_YF], the enrichment score is inactive: 0.63.

As for DGTVHYVDEKG [IFT140_Y216], the enrichment score is inactive: 0.581.

FLAVGYHKPRI [IDS_Y225_H229R]: the enrichment score is inactive: 2.01.

Regarding FLAVGYHKPFI [IDS_Y225_H229Y_YF], the enrichment score is inactive: 2.

The target of the next assay is SHP2 N-SH2 domain T42A. Described as above. As to conditions: peptide library: pTyr-Var.
Consider FLAVGYHKPYI [IDS_Y225_H229Y], for which the enrichment score was inactive: 2.58.

In the case of IKIMGYFIRTI [IDS_Y490_S491F], the enrichment score was inactive: 1.72.

Regarding VVLGSYDRLRV [IFT172_Y260], the enrichment score is inactive: 0.864.

As to IRTIDYRYTVC [IDS_Y497_W502C], the enrichment score is inactive: 1.18.

ISISPYPAILH [IFT80_Y588_T586S]: the enrichment score is inactive: 0.48.

With GKFFQYDTWNQ [IGF2_Y116_K120N], the enrichment score is inactive: 0.973.

Turning to ISITPYPAILH [IFT80_Y588], the enrichment score was inactive: 0.655.

Consider QTEGEYSSLEH [IDH3B_Y171], for which the enrichment score is inactive: 0.531.

As for IRTIDYRYTVS [IDS_Y497_W502S], the enrichment score is inactive: 0.986.

Consider FLAVGYHQPHI [IDS_Y225_K227Q], for which the enrichment score is inactive: 2.04.

For IKIMGYSIRTI [IDS_Y490], the enrichment score was inactive: 1.65.

With IRTIDYRYTVW [IDS_Y497], the enrichment score was inactive: 2.32.

Turning to VVPGSYDRLRV [IFT172_Y260_L257P], the enrichment score was inactive: 0.543.

For the molecule FLAVGYHKPHI [IDS_Y225], the enrichment score was inactive: 2.02.

RIPFRYPKEFQ [IDS_Y234_H229R]: the enrichment score was inactive: 0.353.

Turning to IRTIDYRFTVC [IDS_Y497_W502C_YF], the enrichment score was inactive: 0.625.

As for DGTVHYVDEKG [IFT140_Y216], the enrichment score is inactive: 0.516.

As to FLAVGYHKPRI [IDS_Y225_H229R], the enrichment score was inactive: 1.99.

FLAVGYHKPFI [IDS_Y225_H229Y_YF]: the enrichment score is active: 4.15.

The next assay addresses SHP2 N-SH2 domain T52S. Described as above. As to conditions: peptide library: pTyr-Var.
Regarding FLAVGYHKPYI [IDS_Y225_H229Y], the enrichment score is inactive: 2.06.

With IKIMGYFIRTI [IDS_Y490_S491F], the enrichment score was inactive: 1.87.

For VVLGSYDRLRV [IFT172_Y260], the enrichment score is inactive: 0.823.

For IRTIDYRYTVC [IDS_Y497_W502C], the enrichment score is inactive: 0.935.

Consider ISISPYPAILH [IFT80_Y588_T586S], for which the enrichment score is inactive: 0.528.

On to GKFFQYDTWNQ [IGF2_Y116_K120N], for which the enrichment score is inactive: 1.55.

For ISITPYPAILH [IFT80_Y588], the enrichment score is inactive: 0.765.

In the case of QTEGEYSSLEH [IDH3B_Y171], the enrichment score was inactive: 0.368.

Consider IRTIDYRYTVS [IDS_Y497_W502S], for which the enrichment score is inactive: 1.03.

On to FLAVGYHQPHI [IDS_Y225_K227Q], for which the enrichment score is inactive: 1.83.

Take IKIMGYSIRTI [IDS_Y490]: the enrichment score was inactive: 1.64.

As to IRTIDYRYTVW [IDS_Y497], the enrichment score is inactive: 2.02.

With VVPGSYDRLRV [IFT172_Y260_L257P], the enrichment score is inactive: 0.701.

With FLAVGYHKPHI [IDS_Y225], the enrichment score is inactive: 2.66.

With RIPFRYPKEFQ [IDS_Y234_H229R], the enrichment score was inactive: 0.641.

IRTIDYRFTVC [IDS_Y497_W502C_YF]: the enrichment score is inactive: 0.518.

Regarding DGTVHYVDEKG [IFT140_Y216], the enrichment score is inactive: 0.545.

In the case of FLAVGYHKPRI [IDS_Y225_H229R], the enrichment score was inactive: 2.35.

In the case of FLAVGYHKPFI [IDS_Y225_H229Y_YF], the enrichment score was inactive: 2.07.

The target of a further assay is SHP2 N-SH2 domain wild-type. The description is as above. As to conditions: peptide library: pTyr-Var.
Regarding FLAVGYHKPYI [IDS_Y225_H229Y], the enrichment score was inactive: 1.73.

Consider IKIMGYFIRTI [IDS_Y490_S491F], for which the enrichment score is inactive: 1.98.

Turning to VVLGSYDRLRV [IFT172_Y260], the enrichment score was inactive: 1.08.

In the case of IRTIDYRYTVC [IDS_Y497_W502C], the enrichment score was inactive: 0.937.

For the molecule ISISPYPAILH [IFT80_Y588_T586S], the enrichment score is inactive: 0.695.

GKFFQYDTWNQ [IGF2_Y116_K120N]: the enrichment score was inactive: 1.11.

In the case of ISITPYPAILH [IFT80_Y588], the enrichment score was inactive: 0.686.

Consider QTEGEYSSLEH [IDH3B_Y171], for which the enrichment score is inactive: 0.423.

Take IRTIDYRYTVS [IDS_Y497_W502S]: the enrichment score is inactive: 1.05.

As to FLAVGYHQPHI [IDS_Y225_K227Q], the enrichment score is inactive: 1.75.

Consider IKIMGYSIRTI [IDS_Y490], for which the enrichment score was inactive: 1.97.

Turning to IRTIDYRYTVW [IDS_Y497], the enrichment score was inactive: 1.93.

Turning to VVPGSYDRLRV [IFT172_Y260_L257P], the enrichment score was inactive: 0.664.

For FLAVGYHKPHI [IDS_Y225], the enrichment score is inactive: 2.56.

Take RIPFRYPKEFQ [IDS_Y234_H229R]: the enrichment score was inactive: 0.483.

On to IRTIDYRFTVC [IDS_Y497_W502C_YF], for which the enrichment score was inactive: 0.864.

For DGTVHYVDEKG [IFT140_Y216], the enrichment score was inactive: 0.649.

With FLAVGYHKPRI [IDS_Y225_H229R], the enrichment score is inactive: 2.36.

Take FLAVGYHKPFI [IDS_Y225_H229Y_YF]: the enrichment score was inactive: 2.26.
